Inhibition data for 98 compounds are collected here from PubChem BioAssay AID485344 (National Center for Advancing Translational Sciences (NCATS), 2010).

The whole screen tested about 340,000 compounds, of which about 6,900 (2%) were called active. No stated cut-off is given here; in the data, active means inhibition above about 30%; inactive means below that, where a call was filed. This is a selection; strong and weak results do not stand in their true shares. The source gives no active or inactive call for entries shown without one.

The test concerns the target D(2) dopamine receptor (Homo sapiens) (UniProt P14416). Briefly: HTS Assay for Allosteric Antagonists of the Human D2 Dopamine Receptor: Primary Screen for Antagonists. Further: 0% is about no effect. Conditions: HEK293 TREx D2 cells, calcium flux, dopamine EC80; at 10 µM; stronger effect = higher value. The gist of the method: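 Inhibition of EC80 dopamine-driven calcium flux, recorded kinetically, defines activity here; cells are a tetracycline-induced HEK293 T-REx line expressing force-coupled D2.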
Sequence of UniProt P14416 (P14416 whole entry, looked up): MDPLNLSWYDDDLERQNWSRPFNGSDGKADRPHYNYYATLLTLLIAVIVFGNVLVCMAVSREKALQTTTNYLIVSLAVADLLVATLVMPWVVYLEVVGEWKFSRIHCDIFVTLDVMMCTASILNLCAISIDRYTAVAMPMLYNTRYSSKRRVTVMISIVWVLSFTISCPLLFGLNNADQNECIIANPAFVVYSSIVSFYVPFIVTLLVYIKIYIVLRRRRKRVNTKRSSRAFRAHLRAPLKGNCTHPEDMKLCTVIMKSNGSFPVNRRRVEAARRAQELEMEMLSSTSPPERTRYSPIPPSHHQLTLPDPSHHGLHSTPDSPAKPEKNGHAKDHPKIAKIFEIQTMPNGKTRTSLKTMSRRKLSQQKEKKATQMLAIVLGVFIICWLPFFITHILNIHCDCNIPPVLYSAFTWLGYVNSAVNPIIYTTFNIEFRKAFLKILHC
As to `COc1ccccc1NC(=O)C1CCN(C(=O)c2sc3nc[nH]c(=O)c3c2C)CC1`, the inhibition came to 1.84%. The figure for `CC(=O)c1ccc(NC(=O)c2ccc(-c3ccc(Cl)cc3)o2)cc1` is -0.2%; for `CC1(C)CC(O)(CNCc2ccc3c(c2)OCO3)CCO1` (stereo not drawn) it is active: 87.8%. Consider `CCN(CC)CCNC(=O)c1ccc2nc(CCc3ccccc3)oc2c1`, for which the inhibition turned out to be 17%.

For `CCOC(=O)c1cc(S(=O)(=O)N2CCN(c3ccc(C(C)=O)cc3)CC2)[nH]n1`, the inhibition stood at 2.33%. The figure for `CCCC12CN3CC(CCC)(CN(C1)C3c1ccccc1)C2=O` (stereo not drawn) is 0.695%; for `CCOC(=O)c1ccc(NC(=O)NCCOCCn2c(=O)oc3ccccc32)cc1` it is -4.35%; for `CCS(=O)(=O)c1nc(S(=O)(=O)c2ccc(C)cc2)c(NCCCOC)s1` it is 0.727%.

Turning to `COc1ccc(CNC(=O)CSc2nc(-c3ccc(OC)c(OC)c3)cc(C(F)(F)F)n2)cc1`, the inhibition stood at 2.2%. The figure for `COc1cc(Cl)c(NS(=O)(=O)c2ccc(-c3cnc(C4CC4)o3)cc2)c(OC)c1` is -17.3%; for `O=C(NCCN1CCN(c2ccccc2)CC1)Nc1ccccc1Cl` it is active: 34.6%; for `O=C(Nc1nc2ccccc2s1)c1ccc(S(=O)(=O)N2CCCC2)cc1` it is -2.86%. On to `Cc1ccc(N2CCN(CC(O)COC3CCCCC3)CC2)cc1` (stereo not drawn), for which the inhibition is active: 63.4%. For the compound `O=S(=O)(c1ccc2nc(NCc3ccccc3Cl)ccc2c1)N1CCCCC1`, the inhibition was -4.2%.

With `CCOc1ccc(C2C(=O)N(C3CCCCCC3)CC(=O)N2CCc2ccc(OC)c(OC)c2)cc1OC` (stereo not drawn), the inhibition is -3.27%.

Consider `O=C(Oc1ccc(Cl)c2ccccc12)N1CCCCC1`, for which the inhibition is active: 55.9%. The figure for `O=C(Cn1cnc2c(oc3ccccc32)c1=O)Nc1ccc(F)cc1F` is 20.2%. The figure for `O=C(CSc1nc2c(oc3ccccc32)c(=O)n1Cc1ccco1)Nc1ccccc1Cl` is -4.91%; for `O=C(Cn1ncc2c3ccccc3n(Cc3cccc(Cl)c3)c2c1=O)NCc1cccs1` it is 3.83%; for `C/C(=N\NC(=O)c1cc2ccccc2cc1O)c1ccc2c(c1)OCO2` it is active: 33.3%.

Consider `CCc1ccc(OCc2nc(-c3ccc(OC)cc3)no2)c(Br)c1`, for which the inhibition was -5.26%. The figure for `CCCCN(C)S(=O)(=O)c1ccc(C(=O)Nc2sc3c(c2C(N)=O)CC(C)(C)NC3(C)C)cc1` is 24.2%; for `CCCc1ccc(-c2ccc(C(=O)Oc3ccc(OCC)cc3)cc2)nc1` it is -4.56%. `Cc1ccc(CCNC(=O)CS(=O)Cc2nc(-c3ccccc3C)oc2C)cc1` (stereo not drawn): the inhibition is -18.7%. In the case of `Cc1c(CCC(=O)NCc2cccc(Cl)c2)c(=O)oc2c(C)c(O)ccc12`, the inhibition was -8.57%. The figure for `CCN(Cc1ccccc1)C(=O)Cn1c(=O)n(-c2ccc(Cl)cc2)c(=O)c2c(C)c(C(=O)N(C)C)sc21` is 6.06%; for `CCOCCCN1C(=O)c2[nH]nc(-c3ccccc3O)c2C1c1ccc(CC)cc1` (stereo not drawn) it is 4.97%; for `COC(=O)C(C)Sc1nnc(SC(C)C(=O)OC)s1` (stereo not drawn) it is active: 39.7%. Take `CCCCc1nn2c(=O)cc(COC(=O)c3ccc(NC(=O)CCc4ccccc4)cc3)nc2s1`: the inhibition was -14%. With `CCOC(=O)c1oc2c(c1C)-c1nn(Cc3c(F)cccc3Cl)cc1CC2`, the inhibition worked out at 14.2%. On to `O=C(NC1CC1)c1cc2c(s1)-c1ccccc1OC2`, for which the inhibition was active: 34.1%.

Take `Cc1cccc(NC(=O)C2CCN(c3nc4ccccc4[nH]3)CC2)c1C`: the inhibition was -9.68%. On to `O=C(Nc1ccc2nc(SCC(=O)N3CCCC3)sc2c1)c1cccc(Br)c1`, for which the inhibition was -9.86%. In the case of `Cc1ccc(C)c(CNC(=O)CCn2cccn2)c1`, the inhibition turned out to be 12.5%.

For the compound `Cc1cc(C)cc(N2C(=O)CSC23C(=O)N(CC(=O)Nc2ccc(F)cc2F)c2ccccc23)c1` (stereo not drawn), the inhibition is -2.07%.

As to `COc1ccccc1C(=O)N1CCC(c2noc(-c3ccc(S(=O)(=O)N4CCCC4)cc3)n2)CC1`, the inhibition is -1.04%. The figure for `COc1cccc(CNC(=O)c2oc3c(c2C)-c2nn(Cc4cccc(Cl)c4)cc2CC3)c1OC` is 17.5%; for `O=C(NCCc1ccc(Cl)cc1)c1ccc(CS(=O)Cc2ccccc2Cl)o1` (stereo not drawn) it is -21%. As to `COc1ccc(NC(=O)Cn2c(SCc3ccc(F)cc3)nc3cccnc32)cc1OC`, the inhibition is -3.27%. Turning to `CC(C)N(C)C1CCN(S(=O)(=O)c2ccc3[nH]c(=O)ccc3c2)CC1`, the inhibition is -15.5%. For the compound `COc1cc(CN2CCN(c3ccccc3F)CC2)cc(OC)c1O`, the inhibition was active: 69.8%. The figure for `C=CCOc1ccccc1CN1CCC(C(=O)Nc2cccc(-c3ccn[nH]3)c2)CC1` is active: 92.4%; for `Cc1nc2ccc(S(=O)(=O)N(CC(=O)Nc3cccc(F)c3)Cc3ccccc3)cc2s1` it is 8.16%. The figure for `O=C1CC(c2ccccc2)c2c(n3ncnc3[nH]c2=O)N1` (stereo not drawn) is -16.3%; for `CC(C)CCn1c(=O)c2sccc2n2c(CCCC(=O)NCCc3ccccc3)nnc12` it is 0.693%. The figure for `Cc1cc(=O)n2nc(N(C)CC(=O)NCc3cccc(Br)c3)sc2n1` is -2.56%; for `CCCCN(C(=O)c1ccc(C#N)cc1)c1c(N)n(CCC)c(=O)[nH]c1=O` it is active: 42%; for `O=C(CN1CCOCC1)Nc1ncc(Cc2cccc3ccccc23)s1` it is active: 42%.

With `CCOc1ccc(OCC)c(NC(=O)Cn2nc(CC)n3c(cc4sccc43)c2=O)c1`, the inhibition was 16.7%. With `CCCCN(CC)CCCNC(=O)Cn1ncc2c3ccccc3n(C)c2c1=O`, the inhibition was found to be 1.81%. The figure for `NC(=S)N/N=C/c1ccc2ccccc2c1` is active: 48.1%; for `Cc1ccc(NC(=O)CN2CCSc3ccc(S(=O)(=O)N4CCCC4)cc32)cc1` it is 0.539%.

As to `CCN(Cc1nc(-c2ccc(OC)cc2)oc1C)S(=O)(=O)c1ccc(C)cc1`, the inhibition came to 6.33%. In the case of `CCOC(=O)Cc1ccc(NC(=O)N2CCC(CN3CCCCCC3)CC2)cc1`, the inhibition is -4.15%. The figure for `CCOc1ccccc1Nc1nnc(-c2cc3cc(OC)ccc3oc2=O)s1` is 2.37%. The figure for `CCc1ccc(Oc2c(C(F)(F)F)oc3c(CN4CCC(C)CC4)c(O)ccc3c2=O)cc1` is -6.4%; for `CCCCN(CC)C(=O)c1cc2c(=O)n3cccc(C)c3nc2n1C` it is -5.42%. The figure for `Cc1ccc(S(=O)(=O)CC(=O)Nc2sc3c(c2C(N)=O)CCCC3)cc1` is 25.6%; for `CCC(=O)c1ccccc1OCCN1CCN(Cc2ccccc2)CC1` it is active: 110%; for `CC(C)CCNC(=O)Nc1ccc2c(c1)N(Cc1ccccc1)C(=O)c1ccccc1S2` it is -6.32%. On to `Cc1ccccc1Nc1c(-c2ccc(Br)o2)nc2ccc(Cl)cn12`, for which the inhibition is 17.4%. Regarding `CCc1ccc(NC(=O)Cc2c(C(=O)O)c(C)cn2C)cc1`, the inhibition is -11.7%.

For `COc1cc(OC)c(NC(=O)c2cc(C)nc3c2c(C)nn3-c2ccc(C)cc2)cc1Cl`, the inhibition is -7.68%. The figure for `CCOc1ccc(-c2nn(CC(=O)NC3CCCC3)c3c2cnc2ccc(C)cc23)cc1` is -1.15%; for `COc1ccc(CCNC(=O)c2ccc3c(c2)N(Cc2ccc(Cl)cc2)C(=O)c2ccccc2S3)cc1OC` it is 14.2%; for `Cc1ccc(NC(=O)CCN2CCN(CCO)CC2)cc1C` it is -7.94%. The figure for `COc1ccc(-c2nc(C)c(CCNS(=O)(=O)c3ccc(F)cc3)s2)cc1OC` is -13.8%; for `COC(=O)c1ccccc1NC(=O)c1cn2c3c(ccc(Cl)c3c1=O)OC(C)C2` (stereo not drawn) it is 3.35%. The figure for `CC(C)c1ccc(CN(Cc2ccco2)c2cnc(S(C)(=O)=O)nc2C(=O)Nc2ccccc2)cc1` is 6.19%.

In the case of `Cc1c(-c2nnc(SCC(=O)Nc3ccc(Br)cc3)o2)nnn1-c1ccc(F)cc1`, the inhibition is -16.1%.

As to `COc1ccc(C2(N3CCN(c4cccc(C)c4C)CC3)C(=O)c3ccccc3C2=O)cc1`, the inhibition is -4.61%. The figure for `COC(=O)c1ccn(-c2nc(-c3ccc(Cl)cc3)cc(C(F)(F)F)n2)n1` is 7.66%; for `Cc1ccc(C(=O)Nc2sc3c(c2C(=O)O)CCCCC3)o1` it is active: 32.1%; for `CCOc1ccc(CNCCSc2nnnn2C)cc1OC` it is -10.6%. The figure for `CCc1cccc(C)c1NC(=O)c1cc(S(=O)(=O)N2CCC3(CC2)OCCO3)ccc1F` is -11.9%; for `Cc1oc(-c2ccc(Cl)cc2)nc1CN1CCCC(C(=O)NCCc2ccccc2)C1` (stereo not drawn) it is 4.98%; for `CC(=O)c1ccc(NC(=O)CSc2c(C(C)C)cnc3c2c(=O)n(C)c(=O)n3C)cc1` it is -4.83%. The figure for `Cc1ccc(S(=O)(=O)N2CCCc3cc(NS(=O)(=O)c4ccc(C)c(C)c4)ccc32)cc1` is 7.84%. Take `Cc1ccc2oc(-c3cccc(NC(=O)c4ccc(N5CCC(C)CC5)c([N+](=O)[O-])c4)c3)nc2c1`: the inhibition was 7.5%. The figure for `COc1ccc(Nc2nc(Nc3ccc(OC)cc3OC)nc(N3CCOCC3)n2)c(OC)c1` is 16%; for `Nc1nnc(SCC(=O)Nc2cc(C(F)(F)F)ccc2N2CCOCC2)s1` it is active: 86.8%. In the case of `CCOc1ccc(C(=O)Nc2ccc(-c3nnc4n3CCCCC4)cc2)cc1OCC`, the inhibition is -11.2%. Turning to `Cc1ccccc1CC(=O)NC1CCN(Cc2ccccc2)CC1`, the inhibition was active: 56.1%. The figure for `Cc1cccc2c(=O)cc(CSCC(=O)Nc3ccc(Cl)cc3)[nH]c12` is 2.21%; for `COc1ccc(C)cc1NC(=O)CCN1CCN(c2ccccc2F)CC1` it is active: 79.8%. The figure for `CCOC(=O)c1cccc(OCC(O)CNCCOc2ccccc2F)c1` (stereo not drawn) is active: 82.6%. The figure for `Cc1ccc(Cn2c(=O)n(Cc3ccccc3)c(=O)c3c(C)c(C)sc32)cc1` is 3.01%; for `CCOC(=O)Cn1c(=O)n(C2CCCCC2)c2nc(-c3ccc(OC)cc3)nc(C(N)=O)c21` it is 14.9%; for `COc1ccc(Cc2nc3ccc(C(=O)NCCc4ccc(OC)c(OC)c4)cc3o2)cc1` it is 10.7%. As for `Cc1cc(C)cc(NC(c2nnc(-c3cccc(F)c3)o2)c2ccc(F)cc2Cl)c1` (stereo not drawn), the inhibition was 9.75%.

Consider `Cn1c(=O)n(C)c2cc(CNCc3ccccc3)ccc21`, for which the inhibition stood at 5.38%. For the compound `COc1ccc(S(=O)(=O)N2CCN(c3ccccc3)CC2)cc1-c1noc(C)n1`, the inhibition is -12.4%. The figure for `O=C(Cn1c(=O)c(C(F)(F)F)nc2ccccc21)Nc1ccc(Br)cc1F` is -5.56%. In the case of `Cn1nc(-c2ccccc2F)c2cc(C(=O)Nc3cc(F)ccc3F)sc21`, the inhibition was 12.5%. The figure for `O=C(c1cnc2c(c1)COc1ccccc1-2)c1ccccc1O` is -3.6%; for `Cc1ccccc1Cn1cc(CCC(=O)NCc2cccc(Br)c2)c2ccccc21` it is 20.3%; for `COc1ccc(S(=O)(=O)NCC(c2ccco2)N2CCN(c3ccc(F)cc3)CC2)cc1` (stereo not drawn) it is 8.34%. For the compound `CC(C)(C)NC(=O)CSc1nc(-c2ccc(F)cc2)cc(C(F)(F)F)n1`, the inhibition was -7.28%.
